Assay results taken from PubChem BioAssay AID1745853 (National Center for Advancing Translational Sciences (NCATS), 2022).
The list shows a part of the results. Further columns of the screen follow, without active or inactive calls.

Experiments:
Test in all cases: Primary Screen for Target Class Profiling of Small Molecule Inhibitors of Methyltransferases
[1] = target: Glycine N-methyltransferase (Homo sapiens) (UniProt Q14749); details: purified enzyme, MTase-Glo SAH luminescence; measured here: GNMT inhibition; at 40 µM; stronger effect = lower value
In short: (§1)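 Each enzyme was reacted with SAM and its substrate, with compounds tested once at 40 uM; SAH formed was read by MTase-Glo luminescence.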

[2] = target: Guanidinoacetate N-methyltransferase (Homo sapiens) (UniProt Q14353); details: purified enzyme, MTase-Glo SAH luminescence; measured here: GAMT inhibition; at 40 µM; stronger effect = lower value
In short: as §1

[3] = target: Histamine N-methyltransferase (Homo sapiens) (UniProt P50135); details: purified enzyme, MTase-Glo SAH luminescence; measured here: HNMT inhibition; at 40 µM; stronger effect = lower value
In short: as §1

[4] = target: Nicotinamide N-methyltransferase (Homo sapiens) (UniProt P40261); details: purified enzyme, MTase-Glo SAH luminescence; measured here: NNMT inhibition; at 40 µM; stronger effect = lower value
In short: as §1

[5] = target: Phenylethanolamine N-methyltransferase (Homo sapiens) (UniProt P11086); details: purified enzyme, MTase-Glo SAH luminescence; measured here: PNMT inhibition; at 40 µM; stronger effect = lower value
In short: as §1
% is scaled to controls: 0 for no effect and ±100 for the full control effect.

Row | Compound | activity change, negative = inhibition [1] [%] | activity change, negative = inhibition [2] [%] | activity change, negative = inhibition [3] [%] | activity change, negative = inhibition [4] [%] | activity change, negative = inhibition [5] [%]
1 | c1c(-c2nc(C3CCOC3)no2)sc2c1CCCC2 (stereo not drawn) | -4.58 | -1.15 | -1.27 | -5.03 | 1.55
2 | CCOc1ccc(C2c3cccn3-c3sc4c(c3CN2C(=O)Nc2ccccc2)CCCC4)cc1 (stereo not drawn) | -0.016 | 3.86 | 1.84 | -4.88 | 1.75
3 | Cn1cc(CN2C[C@H](C(=O)NCc3ccccc3)C[C@H]2c2cccc(C(F)(F)F)c2)cn1 | -2.74 | -1.08 | 1 | -3.37 | 1.28
4 | CCN1CCN(c2nc3c(S(=O)(=O)c4ccc(C)c(C)c4)nnn3c3ccc(Cl)cc23)CC1 | -12.8 | 1.23 | -19.9 | -11.9 | -2.83
5 | COc1ccccc1CNC(=O)c1ccc2c(=O)nc3c(-c4cccc(C)c4)n[nH]n3c2c1 | -10.7 | -5.35 | 1.3 | -3.82 | -5.45
6 | CCn1cc(C(=O)N[C@@H]2CN(c3ncccn3)C[C@H]2CO)cn1 | -6.06 | -9.82 | -3.19 | -18.9 | -5.13
7 | O=C1CN(Cc2cccc(Br)c2)S(=O)(=O)c2ccccc2N1Cc1cccc(F)c1 | 18.9 | 1.98 | 14.3 | 10.3 | 11.5
8 | Cc1c(C(=O)Nc2cccc(-c3nc4ccccc4s3)c2)oc2ccc(F)cc12 | – | -24 | – | -33.3 | -4.22
9 | COc1cc(Cl)ccc1C(=O)N1CC[C@@](C)(O)[C@@H](O)C1 | -8.59 | -14.5 | -5.98 | -20.3 | -12.4
10 | COC[C@@H]1[C@H](C(=O)N2CCN(Cc3ccccc3)CC2)CCC(=O)N1C | -2.77 | -3.4 | 1.41 | -2.46 | -1.75
11 | CC(C)CCn1c(=O)c2ccccc2n2c(SCC(=O)NC3CCCCC3)nnc12 | 5.3 | 3.02 | 12.9 | -1.5 | 6.75
12 | CCN1CCN(c2nc3c(-c4cccc(C)c4)nnn3c3ccc(Cl)cc23)CC1 | -4.07 | 4.89 | 4.06 | 6.21 | -0.917
13 | CCCn1c(=O)c2ccccc2n2c(=O)n(Cc3cccc(OC)c3)nc12 | -0.667 | 3.04 | 6.54 | -5.06 | 1.66
14 | C/C(=C\CCC(C)CCO)C(=O)O[C@@H]1[C@@H](O)[C@H](OC2OC=C(C(=O)O)C3CCC(C)(O)C23)O[C@H](CO)[C@H]1O (stereo partly drawn) | 1.94 | -2.57 | 6.6 | -9.55 | -4.64
15 | Cc1cccc(Cn2nc(C3CCCNC3)n(-c3ccccc3)c2=O)c1 (stereo not drawn) | -0.936 | 0.059 | -0.767 | 0.236 | 2.28
16 | CCc1cc(N2CCC(NCCc3cccc(Cl)c3)CC2)nc(C)n1 | -8.03 | -9.15 | -40.4 | -13.5 | -19.2
17 | C[C@]1(CO)[C@H]2Cc3sc(NC(=O)c4cccs4)nc3[C@@H](CC(=O)O)[C@]2(C)CC[C@H]1O | -7.21 | -5.62 | -0.257 | -13.6 | -0.299
18 | CC1C2=CC(=O)OC2(O)CC2C1C(OC(=O)c1ccccc1)C(OC(=O)c1ccccc1)C1(O)C2(C)CCC(O)C1(C)C(=O)O (stereo not drawn) | -0.062 | -9.69 | 4.94 | -18.5 | -0.513
19 | O=C(O)[C@H]1C[C@H](C(=O)NCc2ccccn2)CN(Cc2ccccc2)C1 | -5.91 | -10.9 | -3.25 | -13.3 | -10.5
20 | O=C1c2ccccc2C(=O)c2cc(S(=O)(=O)NC3CCCCC3)ccc21 | -6.76 | 1.94 | 1.44 | -11.5 | -12.1

Row | Compound | activity change, negative = inhibition [1] [%] | activity change, negative = inhibition [2] [%] | activity change, negative = inhibition [3] [%] | activity change, negative = inhibition [4] [%] | activity change, negative = inhibition [5] [%]
21 | Nc1nc2c(nc(Br)n2C2OC3COP(=O)(O)O[C@@H]3C2O)c(=O)[nH]1 (stereo partly drawn) | 1.5 | 12.3 | 3.51 | -3.67 | 7.5
22 | C#Cc1cnc2[nH]c(=O)n(C(CC)CC)c2n1 | -1.21 | -2.28 | 7 | -14.4 | 0.165
23 | CCc1cc(C(=O)N2CCC(c3nnc(Cn4cncn4)n3C)CC2)no1 | 0.365 | -2.62 | 0.755 | -3.54 | 0.257
24 | Cc1ccc(S(=O)(=O)N2CCC[C@H]2c2ccc(F)cc2)cc1 | -3.73 | -7.21 | -1.43 | -35.8 | -10.5
25 | C[S+](=O)([O-])N1CCC2(C1)N=C(c1ccccn1)C(=O)N2 (stereo not drawn) | -2.83 | -5.81 | -5.57 | -10 | -15.2
26 | CC(C)(C)C(=O)Nc1nc2c(s1)C[C@@H]1[C@](C)(CO)[C@H](O)CC[C@@]1(C)[C@@H]2CC(=O)NC1CC1 | -1.64 | 1.68 | 0.127 | -2.92 | -2.57
27 | COc1ccccc1CNC(=O)C1(C)Cn2nc(-c3ccccc3)cc2C(=O)N1Cc1ccc(C)cc1 (stereo not drawn) | -5.14 | 0.217 | -2.21 | -7.85 | -2.69
28 | COc1cc(CCC(=O)N2C[C@@H](C(N)=O)[C@H](c3nc(C)no3)C2)on1 | -3.2 | -4.74 | 0.296 | -8.51 | -16.9
29 | COc1cccc(CN2CCC(Oc3ccccc3-c3nc(-c4ccncc4)no3)C2)c1 (stereo not drawn) | -16.7 | -8.17 | -35.4 | -37.8 | -7.69
30 | O=C(Nc1cccc(F)c1)N1CCn2cccc2C1Cc1ccccc1 (stereo not drawn) | 11.8 | 0 | 5.79 | 4.2 | 7.2
31 | CCCn1c(=O)c2cc(F)ccc2n2c(SCC(=O)Nc3ccc4c(c3)OCCO4)nnc12 | -9.81 | 0.53 | 9.14 | -7.17 | 4.95
32 | O=C(NCCc1ccccc1)c1cc(-c2ccc(Cl)cc2)nc2n[nH]c(-c3ccccc3)c12 | 3.6 | 3.64 | -4.82 | -0.886 | -3.58
33 | Cc1ccc(C(=O)Cn2nc3n(CC(C)C)c(=O)c4ccc(C(=O)NC(C)C)cc4n3c2=O)c(C)c1 | 9.17 | 0.666 | 10.9 | 4.3 | 7.47
34 | CC(=O)O[C@]1(C(C)=O)CC[C@H]2[C@@H]3C[C@H](C)C4=CC(=O)CC[C@]4(C)[C@H]3CC[C@@]21C | 6.02 | 5.14 | 8.48 | -27.2 | 3.01
35 | CSCCC(NS(=O)(=O)c1ccc2c(c1)oc(=O)n2C)C(=O)N1CCN(Cc2ccccc2)CC1 (stereo not drawn) | 5.95 | 0 | 5.3 | -0.808 | -0.457
36 | O=C(O)c1cc(-c2ccccc2)nc2ccccc12 | -0.016 | -0.694 | 2.96 | -11.9 | -0.668
37 | CCN(Cc1noc(C2CCC2)n1)C(=O)c1cc(C(C)C)n2ncnc2n1 | -2.26 | -1.72 | 2.2 | -6.91 | -3.66
38 | COc1ccc2cc3n(c2c1)CC(C)(C(=O)NC1CCCCCC1)N(CC1CCCO1)C3=O (stereo not drawn) | 4.96 | 0 | 5.22 | -2.75 | 3.06
39 | CCc1nc2c(c(NCCn3nc(C)c(CC)c3C)n1)CCNCC2 | -1.55 | -1.15 | -2.44 | -10.7 | -8.74
40 | CCC(C)NC(=O)c1ccc2c(=O)n(C(C)C)c3nn(CC(=O)c4ccc(C)cc4C)c(=O)n3c2c1 (stereo not drawn) | 2.76 | 0 | 3.76 | -1.99 | 3.35

Row | Compound | activity change, negative = inhibition [1] [%] | activity change, negative = inhibition [2] [%] | activity change, negative = inhibition [3] [%] | activity change, negative = inhibition [4] [%] | activity change, negative = inhibition [5] [%]
41 | O=S(=O)(O)c1ccc2cc(N=Nc3cc(S(=O)(=O)O)c4cccnc4c3O)ccc2c1 | -24.2 | -13.7 | -12.3 | -23.7 | -15.2
42 | COc1ccc(N2C(=O)c3nc4ccccc4n3CC2(C)C(=O)NC2CCCCCC2)cc1 (stereo not drawn) | 1.98 | 0 | 4.67 | 1.62 | -1.34
43 | CCCC1CCN(C(=O)c2coc(COc3ccc4ccc(OC)cc4c3)n2)C1 (stereo not drawn) | -7.07 | -0.093 | -1.72 | -9.52 | -5.93
44 | Cc1ccccc1NC(=O)c1cc2n(n1)CC(c1ccc(Cl)cc1)OC2 (stereo not drawn) | -7.87 | -4.22 | -2.75 | -4.36 | 8.33
45 | OC[C@H]1C[C@@H](NCc2ccc(F)cc2)[C@H](O)[C@@H]1O | -8.86 | -8.47 | -5.93 | -9.06 | -16.7
46 | Cc1nn(C(=O)CCCC(=O)N2CCC(CCOc3ccc(F)cc3)C2)c2ccccc12 (stereo not drawn) | -5.27 | -10.5 | -6.36 | -14.8 | -10.4
47 | CCN1CCN(c2ccc(C(=O)N3CCCC(c4ccccc4)CC3)cn2)CC1 (stereo not drawn) | -2.83 | -4.56 | -7.07 | -11.7 | -1.49
48 | COCCCNC(=O)c1cc2n(n1)CC(C)(C(=O)NC1CCCC1)N(C)C2=O (stereo not drawn) | 6.08 | 0 | 2.94 | 7.2 | 2.24
49 | COc1cccc(C2c3cccn3-c3sc4c(c3CN2C(=O)Nc2ccccc2Br)CCCC4)c1 (stereo not drawn) | -4.02 | 0 | -0.688 | -6.41 | 2.89
50 | CC1(C)CC[C@]2(C(=O)O[C@@H]3O[C@H](CO)[C@@H](O)[C@H](O)[C@H]3O)CC[C@]3(C)C(=CCC4[C@@]5(C)C[C@@H](O)[C@H](O)C(C)(C)C5[C@H](O)C[C@]43C)[C@@H]2[C@@H]1O (stereo partly drawn) | 0 | -1.27 | -5.57 | -12.9 | -1.08
51 | COc1ccc(-c2nc(-c3ccc(S(=O)(=O)N4CCCCC4)cc3)no2)cc1 | -0.984 | 0 | 5.28 | 5.8 | 3.33
52 | COc1ccc(N2C(=O)c3cc4ccccc4n3CC2(C)C(=O)NC2CCCC2)cc1 (stereo not drawn) | -2.91 | 2.93 | 0.246 | -1.69 | 2.48
53 | COCCNC(=O)c1cc2n(n1)CC(C)(C(=O)NCCC(C)C)N(C)C2=O (stereo not drawn) | 2.57 | 2.43 | 7.18 | 4.71 | 3.4
54 | CCc1cc2c(cc3n2CC(C)(C(=O)NC2CCCCC2)N(c2ccc(Cl)cc2)C3=O)s1 (stereo not drawn) | -2.65 | 7.72 | -0.29 | -0.327 | -1.56
55 | CCOC(=O)C1CCCN(C(=O)C2CCc3nnc(C4CC4)n32)C1 (stereo not drawn) | -4.56 | -3.61 | -0.98 | -7.7 | 3.9
56 | COc1ccccc1CN1C(=O)c2nc3ccccc3n2CC1(C)C(=O)NC1CCCC1 (stereo not drawn) | -3.41 | 2.98 | -3.15 | -0.97 | -6.55
57 | COc1cccc(N2C(=O)c3cc4occc4n3CC2(C)C(=O)NC2CCCCCCC2)c1 (stereo not drawn) | -5.05 | 0.198 | -0.273 | -7.73 | -1.16
58 | COc1cc(CCO)ccc1O[C@@H]1O[C@H](CO)[C@@H](O)[C@H](O)[C@H]1O | -0.309 | -7.27 | 4.11 | -13.4 | -7.12
59 | O=C(NCc1ccncc1)C1CN(Cc2ccccn2)CC12CCOCC2 (stereo not drawn) | -5.09 | -8.73 | -2.62 | -12.1 | -18
